Results as given in the supplement of paper PMC12632987.
Over roughly 2,300 sequences, “median log2 fold change of GCK-ALFA target abundance (FLAG IP / Myc IP barcode read proportion)” has its median near 0.095; the lowest 2% begin near -0.47. The list shows a part of the results.

B1: LC3A_45_1943 (protein)
chain: MTIYEAEIDILLKGTEADLEEAKAIIREVAEKHGVEVEIDEELNAALNAETKADGYQFLEVTLRSESEEKVSKAADEIERRLEEKFKGKVASIISFSKVE
B2: LC3A_3_1416 (protein)
chain: MEEAKKKALEALKKAGHSEETLKALNELVDLLEARGAEEEAKEVLELVLENKDISSELLLEVLNEAIELLTVKKLSPEEVIKELKEELRIARNEEEIIEL
B3: LC3A_free_8_2493 (protein)
chain: KSKELAKIASDELDKLEEKLEEKAKELGVSELDILEISLEIGSTIAEIYTLSDKDPKDILDEVKEGLKEVIKLAKEISEELAKFAKEKAKEVIEKVEKKI
B4: LC3A_free_0_2104 (protein)
chain: MTVVGEVLAISDEKLSEEKVKKLTEFLNELADKISKEYGAKTSVEVKEVDGRTIFTLTFSKEGMSVEEMLEIVDEVADKVEKKFKELGVNVTIYTSVYEE
B5: LC3A_147_483 (protein)
chain: MRIDIDALIKGEETVEEFIERLEEKKEELEEEGVEVELEIEVEEVEEGVYYLKVTVTIKAETKEKEKEAADKIIDTIEEFEEENKDKVLGVLISVEEIEE
B6: LC3A_127_205 (protein)
chain: EKKKLLEEAEKLAEKASEALDKIPEEGEKALEEAIKLLEELAKLLKKVPELEDALKDTEQAIKELKATKTLSPAEKEEAIEHISMIIDGVLIEIESELLK
B7: LC3A_3_1627 (protein)
chain: MEEEVEELLEELREAGHDEETLEAFRRVAELLMERGFEEALKVLIEEVRKLLHLPSEILLDFLESVLERLETEDLNEEETIEFIKEEARIARNEGEIIEL
B8: LC3A_3_1758 (protein)
chain: MEEFIEKAAKELKEAGASEELIELASKALRLLLERGLEETAKEFLETLLELVKKSKELAEELAKEVLELLETSELSPEELAKEIRELMSAALSEAEIIEL
B9: LC3A_28_1260 (protein)
chain: SELEKNIEAAIAEVKEAVAKGEEAVVTIKVPAGITEEEVEKVIETMEKIAELGKSLPSVTIIVDVEKGVKQEHIDKLVDKGEELEKKYPNLTVIFALEEE
B10: LC3A_3_1593 (protein)
chain: MEELVERALERLREAGLSPEVLEAARRLLELLAERGYEEAIETLTEELLELKDAPTELLVAMLEELERIVETEDLSEEEIIERIREEARLARLESEIEEL
B11: LC3A_127_216 (protein)
chain: ELEKLLKEAEKVAEELIKNLEKEDYNLEEIEKLNEELLKLAEEAVKLDPRVQPLLEDAEEMKKLIEEMKKANPAEQEELREIMIMLAEGILIEITRLLLE
B12: LC3A_28_1294 (protein)
chain: SPIEEELKKALERAKKAREEGKQEVIVVKVPGDATEEEIEKVIEGLEEIAEVLKDVENQTIIIDVDAGVPQEHIDKLAKKAEEIEKKYPNVTVIIALDED
B13: LC3A_3_1644 (protein)
chain: LEEEVAATEALLRAAGASEETLAAFRETAELLRERGFEEALRTLIEEVRELADLPSELLLDFLEEVLYELKTKDLNEEEVIERIREIATVTRNESEIIEL
B14: LC3A_3_1906 (protein)
chain: MEELIEELLEYLKEKGADEETIENARKLLEKLKELGLEETLKLAIESIKELADKSVELAKEFIEELLKFLEEHKGSVEELEKELKELITVLKNEALIEEL
B15: LC3A_free_26_2163 (protein)
chain: EEFVDIYNIDKAIELVEEAKKLLEKEDPSLKEEIKLLEEAIKELEKETLESLEKALKLLKEAKKLVEKNKSLSEEVKKKLIKLLEEAIKLVEENIEIMKS
B16: LC3A_free_39_2228 (protein)
chain: SKEEVEKLIKELAKEAGLPYEEVKKKIEEIKEIAGLSDEQMLEIIKALLEAVKAGADAREILEEAVKLAKELKAKGKSPEEIAEAILELIEDYRNLVPLD
B17: LC3A_147_458 (protein)
chain: YVVEVDIDLIVDEGKEEVIKRLKELAEELKEEGYKVKLEIKVEELEPGVYYIDAKITVETETKEEAEKAAQKILDRIDEIEEELKDKILGSLISVSIEEK
B18: LC3A_28_861 (protein)
chain: SKTRESIKKAKEELEKAKAKGEEVTIEIVVTEDVTDEEVEEVIEAIEKAAEVSKTVPGVSVIVDIEGKLDPEKLQKILDAGEEAIEKNPKLNVIFALDEE
B19: LC3A_3_1767 (protein)
chain: MEEFVEEVRKRLKELGADEETIEKAARAVRLLLERGLEETAKEVLETLEELLKISKELAEALAEEVLRILETSDDSPEEIAKKVREEIRNFRLEAEIEEL
B20: LC3A_free_46_2301 (protein)
chain: IKVEIDIYFGAAPLEKIEEAAKRLTETAEKKAKELGAEVEIEVKITKNEDGTYTLEIRITAKVKTLEDANKFIQAISDKVDEINKELGIAAIMSIEVIEE
B21: LC3A_128_228 (protein)
chain: SATRKEIKKLLEEALKILEEARSPELDEKLVEEAIKALKEAIKLVEKGAPKEEIKAALDKAIEALEKLLLDAQAKGLPEATDIAEALILVNEAQELVQTL
B22: LC3A_3_1376 (protein)
chain: AEELIEETLAFLREKGASEETLEAVRRAMEALAEKGYEEALKTFAELLREMADLPDELLLDFAEEVLEAVENEDLDEEELIKFIKEEARIARSESEIIEL
B23: LC3A_141_353 (protein)
chain: EKLEKEYVIEAKTPEEAIEKLEKVKEEIKKLMKEKGFKKVEVKVTIETLNKETGETETKVIEDVVTPENIDLVFDSLEIEVASAALKGDVKVTIKATLIK
B24: LC3A_free_8_2512 (protein)
chain: KSKEFAKAAVAILDELEKKIVELLKKKGKSRLDILDAELLIGSIIAEVISLSDKSMEEILKAIKEGLKELVEELSELKEEVKKLADEALKKIEEEKKKLE
B25: LC3A_3_1897 (protein)
chain: MDEEVEETLKLLKEAGASEETLEAFREVAEKLKERGYYEALKTLIEEMRKLIDAPSELLLDFLKEVLEVLETEDLSEEELIEKIKEIARLTRNEAEIIEL
B26: LC3A_28_1300 (protein)
chain: MSLEEQLEKAIEEAKKAAEKGEATVITIKVPGDADEEDIEKIIKALKEIAEILKDIPGSAIIIDVDADVPQEHITKLAEAAEEIEKKYPNVTVIIALEEP
B27: LC3A_3_1866 (protein)
chain: MEKIKEEILKLLKELGRSEETIEAARELAEALIERGYEEALKTLLEELKKLKDVDDEILLDMFKDILRAVEEENLDEEETIKLIKEEARIALNENEIEEL
B28: LC3A_17_575 (protein)
chain: SEEVEEVVKRTLKVLKEAAKFAEKIDKEAAEKIKKLIKKVEEAAKSGDEKETMKVAAEAMDEAADILDSLEDKDPENASLLSLEAEGVAIEAESVLLKLE
B29: LC3A_28_978 (protein)
chain: SSLEEELEKVLKEAKEAAAKGEPAVITVKVPGDTDEEETDRVIKALREIAEILKDVEGAAIIIDIDGGVPQEHRDRIIDEAERIEKEYPNITVIIALDER

biological target: MAP1LC3A, Q9H492; assay: median log2 fold change of GCK-ALFA target abundance (FLAG IP / Myc IP barcode read proportion) (log2 ratio); each designed protein is fused to an ALFA-tag nanobody in HEK293 cells to bring the named protein to FLAG-tagged glucokinase (GCK); Myc marks an untargeted standard; higher = target protein stabilised (more abundant); conditions: target protein: 3xFLAG-MCP-GCK-ALFA reporter; HEK293 landing pad (RPLP)
Outline: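 An ALFA-nanobody-fused binder library was recombined into HEK293 landing-pad cells and induced with 2 μg mL^−1 doxycycline. Cells were transfected with a plasmid expressing a FLAG-tagged target and a Myc-tagged standard. After 48 h, lysates underwent anti-FLAG and anti-Myc immunoprecipitation, and circular RNA barcodes were reverse transcribed, amplified and sequenced. Target abundance is the per-binder median log2 ratio of FLAG to Myc barcode read proportions. Barcodes needed ≥10^−7 proportion in both replicates, binders ≥3 barcodes per replicate, and a 10^−6 pseudocount was added; the two replicates were pooled.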

| Binder | median log2 fold change |
| --- | --- |
| B1 | 0.00857 |
| B2 | 0.297 |
| B3 | 0.0574 |
| B4 | -0.147 |
| B5 | -0.904 |
| B6 | 0.33 |
| B7 | 0.0406 |
| B8 | 0.206 |
| B9 | -0.13 |
| B10 | 0.0518 |
| B11 | 0.13 |
| B12 | 0.373 |
| B13 | 0.107 |
| B14 | 0.0956 |
| B15 | 0.135 |
| B16 | 0.391 |
| B17 | -0.104 |
| B18 | 0.231 |
| B19 | 0.179 |
| B20 | -0.0458 |
| B21 | 0.197 |
| B22 | 0.0128 |
| B23 | 0.171 |
| B24 | 0.00528 |
| B25 | 0.32 |
| B26 | 0.215 |
| B27 | 0.511 |
| B28 | 0.0127 |
| B29 | -0.158 |
